These are yes or no findings as the source states them, for the method shown. In cells and extracts the contact can be indirect. Some binding calls cover weakened binding; strength is not graded here. For some of these results: Sequences can lack the tags named with a protein.

The target of experiment [1] is T1, TNFR1 (mouse (endogenous in MEFs)) (UniProt P25118).
T1 sequence: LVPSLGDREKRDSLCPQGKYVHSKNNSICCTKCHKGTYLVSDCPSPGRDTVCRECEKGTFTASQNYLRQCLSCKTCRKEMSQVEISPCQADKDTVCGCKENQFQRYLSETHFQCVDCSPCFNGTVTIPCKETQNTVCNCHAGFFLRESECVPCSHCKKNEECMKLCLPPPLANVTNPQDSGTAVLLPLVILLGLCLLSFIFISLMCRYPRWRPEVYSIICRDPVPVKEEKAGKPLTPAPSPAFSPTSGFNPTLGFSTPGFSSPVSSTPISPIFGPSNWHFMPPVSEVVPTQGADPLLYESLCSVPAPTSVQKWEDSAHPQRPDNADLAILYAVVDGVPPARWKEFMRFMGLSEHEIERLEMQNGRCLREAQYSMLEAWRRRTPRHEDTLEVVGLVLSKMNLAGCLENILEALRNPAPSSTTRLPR
As to the kind of experiment: co-IP; MEFs (WT, PP6 knockout and reconstituted) treated with TNFα 50 ng/ml for indicated times, NP-40 lysis, anti-TNFR1 antibody overnight at 4 °C, Protein G agarose, western blot. For orientation: A western blot detects proteins with antibodies after separation by electrophoresis.

Experiment [2] deals with T2, RIPK1 (mouse (endogenous in MEFs)) (UniProt Q60855).
T2 sequence: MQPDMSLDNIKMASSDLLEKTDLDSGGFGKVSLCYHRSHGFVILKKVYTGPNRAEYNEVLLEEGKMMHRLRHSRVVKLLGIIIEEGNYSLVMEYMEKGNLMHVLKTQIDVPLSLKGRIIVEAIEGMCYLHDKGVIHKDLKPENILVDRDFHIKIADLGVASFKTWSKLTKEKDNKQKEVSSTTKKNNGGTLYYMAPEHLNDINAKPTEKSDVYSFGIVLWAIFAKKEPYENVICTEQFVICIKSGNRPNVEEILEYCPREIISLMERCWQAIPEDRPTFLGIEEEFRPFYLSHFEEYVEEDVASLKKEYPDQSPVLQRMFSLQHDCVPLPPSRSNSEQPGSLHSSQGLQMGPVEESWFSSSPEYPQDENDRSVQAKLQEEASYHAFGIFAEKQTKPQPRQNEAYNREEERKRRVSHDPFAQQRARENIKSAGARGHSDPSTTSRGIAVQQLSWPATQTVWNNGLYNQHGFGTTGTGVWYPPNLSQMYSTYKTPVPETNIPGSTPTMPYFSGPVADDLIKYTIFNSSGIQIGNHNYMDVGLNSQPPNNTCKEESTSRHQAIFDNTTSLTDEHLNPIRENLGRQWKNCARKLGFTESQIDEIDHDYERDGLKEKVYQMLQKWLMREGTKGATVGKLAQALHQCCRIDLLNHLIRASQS
As to the kind of experiment: proximity ligation; in situ PLA in fixed, permeabilised MEFs treated with PBS or TNFα for 30 min; anti-RIPK1 (homemade) and anti-PPP6R3 (16944-1-AP); dots counted in 20 cells a group; PPP6R3^−/− MEFs as control.

The target of the next experiment is T3, HA-HOIP (1-864) (UniProt Q924T7).
T3 sequence: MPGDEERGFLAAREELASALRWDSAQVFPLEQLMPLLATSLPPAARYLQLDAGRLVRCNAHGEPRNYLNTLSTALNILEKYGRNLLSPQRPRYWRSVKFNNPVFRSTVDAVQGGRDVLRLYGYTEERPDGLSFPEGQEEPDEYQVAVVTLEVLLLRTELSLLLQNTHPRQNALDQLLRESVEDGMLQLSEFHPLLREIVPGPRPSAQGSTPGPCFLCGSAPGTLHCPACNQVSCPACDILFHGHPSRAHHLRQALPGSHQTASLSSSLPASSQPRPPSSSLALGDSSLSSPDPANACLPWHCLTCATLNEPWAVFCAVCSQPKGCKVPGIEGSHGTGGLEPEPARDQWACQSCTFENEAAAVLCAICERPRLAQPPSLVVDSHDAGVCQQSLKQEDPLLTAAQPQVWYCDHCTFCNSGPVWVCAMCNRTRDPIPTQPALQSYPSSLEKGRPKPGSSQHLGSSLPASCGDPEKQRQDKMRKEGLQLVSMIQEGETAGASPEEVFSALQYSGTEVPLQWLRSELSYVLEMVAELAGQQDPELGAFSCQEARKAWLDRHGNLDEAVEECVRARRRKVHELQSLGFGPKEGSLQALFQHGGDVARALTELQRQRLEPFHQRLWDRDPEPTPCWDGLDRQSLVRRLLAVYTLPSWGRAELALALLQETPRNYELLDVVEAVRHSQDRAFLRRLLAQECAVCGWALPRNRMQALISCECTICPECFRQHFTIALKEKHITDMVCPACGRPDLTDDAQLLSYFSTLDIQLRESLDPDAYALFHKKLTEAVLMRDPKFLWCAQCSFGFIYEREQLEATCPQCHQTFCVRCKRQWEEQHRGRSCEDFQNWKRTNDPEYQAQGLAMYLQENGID
As to the kind of experiment: co-IP; FLAG-PP6 co-expressed with HA-Sharpin, HA-HOIP WT or truncated HA-HOIP in 293T cells for 24 h, NP-40 lysis, anti-HA beads, western blot.

A further experiment concerns the target T4, HA-HOIP (1-704) (UniProt Q924T7).
T4 sequence: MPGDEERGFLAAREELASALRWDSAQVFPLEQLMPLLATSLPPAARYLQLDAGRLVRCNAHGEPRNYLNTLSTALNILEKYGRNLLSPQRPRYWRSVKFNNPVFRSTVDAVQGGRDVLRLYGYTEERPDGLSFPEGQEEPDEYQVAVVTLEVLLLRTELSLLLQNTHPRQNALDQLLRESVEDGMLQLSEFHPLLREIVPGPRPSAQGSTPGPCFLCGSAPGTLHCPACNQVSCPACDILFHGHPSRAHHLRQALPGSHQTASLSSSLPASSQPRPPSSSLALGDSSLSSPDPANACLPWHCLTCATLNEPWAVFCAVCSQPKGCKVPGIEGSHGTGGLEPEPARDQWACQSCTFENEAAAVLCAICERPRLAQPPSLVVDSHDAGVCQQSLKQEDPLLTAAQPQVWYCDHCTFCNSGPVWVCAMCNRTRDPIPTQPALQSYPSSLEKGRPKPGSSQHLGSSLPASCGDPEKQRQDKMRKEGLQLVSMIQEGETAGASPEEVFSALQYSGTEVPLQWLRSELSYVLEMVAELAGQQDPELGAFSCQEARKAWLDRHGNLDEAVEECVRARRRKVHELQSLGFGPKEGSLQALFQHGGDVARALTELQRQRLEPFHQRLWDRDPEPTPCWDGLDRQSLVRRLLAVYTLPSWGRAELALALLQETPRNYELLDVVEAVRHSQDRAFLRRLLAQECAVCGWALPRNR
Described as above.

A further experiment addresses HA-HOIP (WT) (UniProt Q924T7). The description is as above.
The next experiment has as its target T5, HA-Sharpin (UniProt Q91WA6).
T5 sequence: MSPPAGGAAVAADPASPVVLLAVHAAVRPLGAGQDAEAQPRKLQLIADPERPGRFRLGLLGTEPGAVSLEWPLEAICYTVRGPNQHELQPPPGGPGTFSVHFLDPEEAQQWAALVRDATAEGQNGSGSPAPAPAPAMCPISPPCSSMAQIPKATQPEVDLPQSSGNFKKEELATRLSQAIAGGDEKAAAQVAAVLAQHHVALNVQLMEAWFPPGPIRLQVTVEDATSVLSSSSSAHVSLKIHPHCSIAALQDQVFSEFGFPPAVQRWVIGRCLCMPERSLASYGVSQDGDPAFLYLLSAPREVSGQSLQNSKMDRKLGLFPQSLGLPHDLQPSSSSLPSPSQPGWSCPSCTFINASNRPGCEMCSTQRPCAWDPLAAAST
Described as above.

B1: Sharpin (protein, UniProt Q91WA6 1-380)
chain: T5 sequence
For the molecule B1, the binding entry in experiment [1] is on record as “binds”.

B2: PPP6R3, a regulatory subunit of PP6 (protein, UniProt Q922D4 1-844)
chain: MFWKFDLHSSSHIDTLLEREDVTLKELMDEEDVLQECKAQNRKLIEFLLKAECLEDLVSFIIEEPPQDMDEKIRYKYPNISCELLTSDVSQMNDRLGEDESLLMKLYSFLLNESPLNPLLASFFSKVLSILISRKPEQIVDFLKKKRDFVDLIIKHIGTSAIMDLLLRLLTCIEPPQPRQDVLNWLNEERIIQRLVEIVHPSQEEDRHSNASQSLCEIVRLSRDQMLQVQNSTEPDPLLATLEKQEIIEQLLSNIFHKEKNESAIVSAIQILLTLLETRRPTFEGHIEICPPGMSHSACSVNKSVLEAIRGRLGSFHELLLEPPKKSVMKTTWGILDPPVGNTRLNVIRLISSLLQTNTSSINGDLMELNSIGVILDMFFKYTWNNFLHTQVEICIALILASPFENAENGTITDQDSTGDNLLLKHLFQKCQLIERILEAWDTNEKKQAEGGRRHGYMGHLTRIANCIVHSTDKGPNSALVQQLIKDLPDEVRERWETFCTNSLGETNKRNTVDLAFSDYQMQQMTSNFIDQFGFNDEKFADQDDIGNVSFDRVSDINFTLNTNESGNIALFEACCKERIQQFDDGGSDEEDIWEEKHIAFTPESQRRSSSGSTDSEESTDSEEEDGAKQDLFESSSANTEDKMEVDLNEPPTWSANFDVPMETTHGAPLDSVGSDVWSTEEPMPTKETGWASFSEFTSSLSTKESLRSNSPVEMETSTESVDPLTPGAAALATQPEAPGSMAMEASSDGEEDAESTDKVTETVMNGGMKETLSLTVDAKTETAVFKSEEEKLSTSQDAACKDAEETPEPAEAKCTAPLTPSSSPEQRTDQPSMPSDPSVNGPV
As to B2, the binding entry in experiment [2] is recorded as “binds”.

B3: FLAG-PP6 (enzyme, UniProt Q9CQR6 1-305)
chain: MAPLDLDKYVEIARQCKYLPENDLKRLCDYVCDLLLEESNVQPVSTPVTVCGDIHGQFYDLCELFRTGGQVPDTNYIFMGDFVDRGYYSLETFTYLLALKAKWPDRITLLRGNHESRQITQVYGFYDECQTKYGNANAWRYCTKVFDMLTVAALIDEQILCVHGGLSPDIKTLDQIRTIERNQEIPHKGAFCDLVWSDPEDVDTWAISPRGAGWLFGAKVTNEFVHINNLKLICRAHQLVHEGYKFMFDEKLVTVWSAPNYCYRCGNIASIMVFKDVNTREPKLFRAVPDSERVIPPRTTTPYFL
Consider B3, for which the binding result in the experiment with HA-HOIP (1-864) is “no binding”; with HA-HOIP (1-704), “no binding”; in the experiment with HA-HOIP (WT) it was “binds”; in the experiment with HA-Sharpin it was “no binding”.

B4: A20 (enzyme, UniProt Q60769 1-775)
chain: MAEQLLPQALYLSNMRKAVKIRERTPEDIFKPTNGIIYHFKTMHRYTLEMFRTCQFCPQFREIIHKALIDRSVQASLESQKKLNWCREVRKLVALKTNGDGNCLMHAACQYMWGVQDTDLVLRKALCSTLKETDTRNFKFRWQLESLKSQEFVETGLCYDTRNWNDEWDNLVKMASADTPAARSGLQYNSLEEIHIFVLSNILRRPIIVISDKMLRSLESGSNFAPLKVGGIYLPLHWPAQECYRYPIVLGYDSQHFVPLVTLKDSGPELRAVPLVNRDRGRFEDLKVHFLTDPENEMKEKLLKEYLIVMEIPVQGWDHGTTHLINAAKLDEANLPKEINLVDDYFELVQHEYKKWQENSDQARRAAHAQNPLEPSTPQLSLMDIKCETPNCPFFMSVNTQPLCHECSERRQKNQSKLPKLNSKLGPEGLPGVGLGSSNWSPEETAGGPHSAPPTAPSLFLFSETTAMKCRSPGCPFTLNVQHNGFCERCHARQINASHTADPGKCQACLQDVTRTFNGICSTCFKRTTAEPSSSLTSSIPASCHQRSKSDPSQLIQSLTPHSCHRTGNVSPSGCLSQAARTPGDRAGTSKCRKAGCMYFGTPENKGFCTLCFIEYRENKQSVTASEKAGSPAPRFQNNVPCLGRECGTLGSTMFEGYCQKCFIEAQNQRFHEARRTEEQLRSSQHRDMPRTTQVASRLKCARASCKNILACRSEELCMECQHLSQRVGSVAHRGEPTPEEPPKQRCRAPACDHFGNAKCNGYCNECYQFKQMYG
Take B4: the binding result in experiment [1] is “binds”.

For the origin of these results see article PMC9452587.
